# Test results as given in the BET-seq Pho4 binding data (Le et al. 2018).
# This is one part of the list. These are noisy estimates, calculated here from bound and input reads.
# Target: T1, Pho4 (S. cerevisiae) (UniProt P07270)
# T1 sequence: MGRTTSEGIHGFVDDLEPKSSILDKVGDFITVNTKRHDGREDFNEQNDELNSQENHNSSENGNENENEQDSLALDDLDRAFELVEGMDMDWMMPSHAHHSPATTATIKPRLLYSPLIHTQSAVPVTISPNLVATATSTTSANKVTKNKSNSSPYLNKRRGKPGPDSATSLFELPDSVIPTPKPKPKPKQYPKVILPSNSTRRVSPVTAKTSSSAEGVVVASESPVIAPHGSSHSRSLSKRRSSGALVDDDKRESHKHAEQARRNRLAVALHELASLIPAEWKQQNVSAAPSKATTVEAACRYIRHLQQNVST
# Experiment: relative binding free energy (BET-seq); higher = weaker binding
# Settings: reference: library average
row,Sequence,relative binding free energy
1,GTGCTCACGTGATGGG,0.45 kcal/mol
2,GGTCTCACGTGGAGTA,0.24 kcal/mol
3,AACGGCACGTGAGGTA,0.13 kcal/mol
4,AGGTCCACGTGTGGCG,0.11 kcal/mol
5,TTCTACACGTGTGGTT,0.14 kcal/mol
6,AAATTCACGTGGGTCG,0.31 kcal/mol
7,GGCTACACGTGTAGGT,0.21 kcal/mol
8,CAATTCACGTGGGAGG,0.14 kcal/mol
9,GGGGGCACGTGTCGCT,-0.07 kcal/mol
10,GATTGCACGTGGGGCT,-0.03 kcal/mol
11,GGTCCCACGTGATGGG,0.1 kcal/mol
12,TGTTTCACGTGGGTCC,0.29 kcal/mol
13,TCTTTCACGTGGAGAG,0.34 kcal/mol
14,TACGGCACGTGAGTGT,0.07 kcal/mol
15,TACTGCACGTGGTCGT,-0.06 kcal/mol
16,AATTACACGTGAGTGG,0.33 kcal/mol
17,GAGATCACGTGGCGGT,0.15 kcal/mol
18,ATAGGCACGTGTGAAA,0 kcal/mol
19,GGGTCCACGTGTTTGC,0.16 kcal/mol
20,AGGTACACGTGTAGTT,0 kcal/mol
21,ATTTGCACGTGGATGG,0.04 kcal/mol
22,GATGTCACGTGGTTAC,0.21 kcal/mol
23,GTATGCACGTGACTTG,0.06 kcal/mol
24,GTGTACACGTGGCTGG,-0.03 kcal/mol
25,GCGATCACGTGGGATG,0.13 kcal/mol
26,AGTGGCACGTGATTGT,0.02 kcal/mol

row,Sequence,relative binding free energy
1,TCAGTCACGTGAGTGT,0.29 kcal/mol
2,CGGGTCACGTGCGAGG,0 kcal/mol
3,ATGATCACGTGATTAT,0.43 kcal/mol
4,TCGTGCACGTGGTAGC,-0.09 kcal/mol
5,GGGTTCACGTGTGCAA,0.26 kcal/mol
6,GGAGTCACGTGTGTTA,0.23 kcal/mol
7,TTACTCACGTGTAGAG,0.26 kcal/mol
8,ATTGGCACGTGAGGAA,0.01 kcal/mol
9,GTTGGCACGTGTTCAA,0.02 kcal/mol
10,AAAGGCACGTGATGGA,0.09 kcal/mol
11,TGAAGCACGTGTAGGG,-0.08 kcal/mol
12,TTCTACACGTGGGGGT,0.03 kcal/mol
13,CGGCTCACGTGGGTGG,0.04 kcal/mol
14,TATTTCACGTGGGAGG,0.18 kcal/mol
15,TCGTTCACGTGTTTAA,0.27 kcal/mol
16,TATATCACGTGTCTGA,0.13 kcal/mol
17,GGCGGCACGTGTTGTA,-0.02 kcal/mol
18,AGTCACACGTGGTGGA,-0.1 kcal/mol
19,ATTCGCACGTGGCGGT,-0.18 kcal/mol
20,GGGATCACGTGTTGCT,0.19 kcal/mol
21,TTTGTCACGTGAGGTA,0.31 kcal/mol
22,AGGCGCACGTGTTGGC,-0.15 kcal/mol
23,GGGATCACGTGAGATG,0.22 kcal/mol
24,ATAGGCACGTGAGAAG,0.03 kcal/mol
25,CTCAGCACGTGTAGGG,0 kcal/mol
26,AGTCTCACGTGAGAGG,0.33 kcal/mol

row,Sequence,relative binding free energy
1,AAGTTCACGTGTTCGG,0.16 kcal/mol
2,AGGCGCACGTGATGGT,0.05 kcal/mol
3,GATTGCACGTGCTGGT,0.08 kcal/mol
4,TATTGCACGTGAGTCT,0.13 kcal/mol
5,GATGGCACGTGAATTT,0.34 kcal/mol
6,CTATTCACGTGTGGTG,0.29 kcal/mol
7,CTCTTCACGTGGTTTT,0.22 kcal/mol
8,TGTATCACGTGATGGG,0.27 kcal/mol
9,CGCTTCACGTGAGGGT,0.33 kcal/mol
10,GAGGGCACGTGAGCGG,0.15 kcal/mol
11,GGGTTCACGTGAGGGG,0.4 kcal/mol
12,TGGTACACGTGATTGC,0.13 kcal/mol
13,ACGGACACGTGGGGGG,-0.09 kcal/mol
14,GTCTACACGTGTTGGT,0.13 kcal/mol
15,TGGTGCACGTGCGAAG,-0.08 kcal/mol
16,GATGACACGTGGGTCT,0.09 kcal/mol
17,GTGTGCACGTGGCTCT,-0.11 kcal/mol
18,TGGGTCACGTGTAATG,0.22 kcal/mol
19,CAAGACACGTGGGTTT,-0.13 kcal/mol
20,GTGAACACGTGTAAGT,0.04 kcal/mol
21,TGTTACACGTGTGGCG,0.09 kcal/mol
22,AGTGTCACGTGGAGAA,0.03 kcal/mol
23,GCTGGCACGTGTGTGT,-0.02 kcal/mol
24,CCGTTCACGTGATGGT,0.51 kcal/mol
25,TTGGACACGTGCGGCG,-0.11 kcal/mol
26,TCCTGCACGTGTTGTA,0.04 kcal/mol

row,Sequence,relative binding free energy
1,GATTACACGTGCTTGG,0.11 kcal/mol
2,TGAGACACGTGAGCTT,0.31 kcal/mol
3,GTTCGCACGTGTTTGG,0.03 kcal/mol
4,ATGTGCACGTGTGAAA,-0.02 kcal/mol
5,ATTGGCACGTGATTAA,0.01 kcal/mol
6,GGTTCCACGTGAGTGT,0.16 kcal/mol
7,TATGGCACGTGCAGGG,-0.12 kcal/mol
8,GTGGGCACGTGACTAT,0.12 kcal/mol
9,ATTTTCACGTGCTAGG,0.22 kcal/mol
10,TGGGTCACGTGGCGTT,0 kcal/mol
11,TGGGGCACGTGACGCG,-0.12 kcal/mol
12,ACTGGCACGTGTAGGG,-0.07 kcal/mol
13,GATTACACGTGGGGTA,-0.16 kcal/mol
14,GGTGTCACGTGTAGTC,0.17 kcal/mol
15,TGTTGCACGTGAATAG,0.16 kcal/mol
16,GGTCGCACGTGTCAGT,0.03 kcal/mol
17,TTGGGCACGTGTAGTT,-0.03 kcal/mol
18,GGGTGCACGTGTTGCT,0.01 kcal/mol
19,CTAATCACGTGAGTGT,0.23 kcal/mol
20,AGGGTCACGTGCGAGA,0.05 kcal/mol
21,TGGGCCACGTGTGCTG,-0.14 kcal/mol
22,ATGCGCACGTGGGTGG,-0.29 kcal/mol
23,TAGAGCACGTGGTACG,-0.2 kcal/mol
24,AGTTTCACGTGCTGAT,0.3 kcal/mol
25,CGGTTCACGTGATTGA,0.26 kcal/mol
26,TGTGGCACGTGGTGGA,-0.09 kcal/mol

row,Sequence,relative binding free energy
1,TTGAACACGTGTGCTT,0.07 kcal/mol
2,TGATTCACGTGCTTAG,0.32 kcal/mol
3,TGACGCACGTGTGGTA,-0.1 kcal/mol
4,TGAGGCACGTGGGACA,-0.29 kcal/mol
5,CTTCGCACGTGGAGGG,-0.02 kcal/mol
6,TTTTGCACGTGGGTCC,-0.06 kcal/mol
7,GTGGCCACGTGGACGG,0.08 kcal/mol
8,GGCCGCACGTGGAGGG,0.02 kcal/mol
9,ACGTGCACGTGTGGTT,-0.24 kcal/mol
10,TTTAACACGTGTTCGT,-0.13 kcal/mol
11,GCGTGCACGTGTTAAG,0.1 kcal/mol
12,ATGTGCACGTGGTGGC,-0.13 kcal/mol
13,AGAGACACGTGGCGGG,-0.08 kcal/mol
14,ATGGGCACGTGCTTGA,-0.11 kcal/mol
15,TTGAGCACGTGTTGTA,-0.19 kcal/mol
16,ATTGTCACGTGAGTGC,0.21 kcal/mol
17,TATGGCACGTGCATTT,-0.11 kcal/mol
18,ATGAGCACGTGTAAGG,0.01 kcal/mol
19,CTGGTCACGTGATCGG,0.26 kcal/mol
20,ATTAACACGTGGATTG,-0.09 kcal/mol
21,CGGGCCACGTGGTAGT,-0.09 kcal/mol
22,GGACGCACGTGTGTGC,0.1 kcal/mol
23,GTTCGCACGTGGTGCG,-0.07 kcal/mol
24,GTGGTCACGTGTGCGC,0.13 kcal/mol
25,TAAGTCACGTGTATGG,0.02 kcal/mol
26,CTATTCACGTGGGTTT,0.29 kcal/mol

row,Sequence,relative binding free energy
1,CATGGCACGTGTATAG,-0.02 kcal/mol
2,GCGTTCACGTGTTAGG,0.17 kcal/mol
3,TGTATCACGTGGTCTG,0.01 kcal/mol
4,GACGGCACGTGTAGTG,-0.01 kcal/mol
5,TACGGCACGTGGTTGC,-0.07 kcal/mol
6,TGCGCCACGTGTGGAT,-0.06 kcal/mol
7,TGGAACACGTGGATTT,0.09 kcal/mol
8,TTAATCACGTGGTTCT,0.11 kcal/mol
9,GTAGGCACGTGCGTAG,-0.05 kcal/mol
10,TTTGTCACGTGGAACA,0.14 kcal/mol
11,CGGTACACGTGTTTAT,-0.01 kcal/mol
12,TATAGCACGTGATGCG,0.04 kcal/mol
13,GCGCGCACGTGGTTGT,-0.01 kcal/mol
14,GAGATCACGTGGGATA,0.2 kcal/mol
15,TAAATCACGTGGGGTG,-0.11 kcal/mol
16,AGAGTCACGTGTGTAA,0.1 kcal/mol
17,GACTGCACGTGTGTTG,0.03 kcal/mol
18,GCAGGCACGTGACGGG,0.16 kcal/mol
19,GGAGACACGTGTAGTT,0.01 kcal/mol
20,TTGCTCACGTGTGCAG,0.38 kcal/mol
21,TCGTTCACGTGAGTGA,0.36 kcal/mol
22,GCGGCCACGTGGGTGG,-0.24 kcal/mol
23,TACGGCACGTGTAAGG,0.12 kcal/mol
24,ATCTTCACGTGGAAGG,0.41 kcal/mol
25,TGAGACACGTGGATAG,-0.04 kcal/mol
26,TCAGACACGTGTGGTT,0.1 kcal/mol

row,Sequence,relative binding free energy
1,CGGGGCACGTGTTAGG,-0.09 kcal/mol
2,ATATACACGTGAGTTT,0.12 kcal/mol
3,TTTGTCACGTGTTCGA,0.09 kcal/mol
4,CGTTGCACGTGATTTA,0.01 kcal/mol
5,TCGGCCACGTGTGGGA,0.05 kcal/mol
6,ATCGTCACGTGTGATT,0.11 kcal/mol
7,AGAAGCACGTGAGGAG,0.17 kcal/mol
8,ATGCTCACGTGATTGG,0.32 kcal/mol
9,CAGATCACGTGGGGTG,0.04 kcal/mol
10,TTAATCACGTGGACTG,0.2 kcal/mol
11,TTGGACACGTGGAGCT,0.04 kcal/mol
12,ATGATCACGTGAGCGG,0.26 kcal/mol
13,AGAAGCACGTGTGTGT,-0.1 kcal/mol
14,GGGCACACGTGGTGGC,0.05 kcal/mol
15,CGGGCCACGTGATGGG,0.09 kcal/mol
16,TAAGTCACGTGTGAAG,0.2 kcal/mol
17,GGGGTCACGTGCGAGA,0.1 kcal/mol
18,GTATCCACGTGGCGGG,0.01 kcal/mol
19,GTGTGCACGTGGGAAG,0.02 kcal/mol
20,CATTACACGTGGGATG,0.15 kcal/mol
21,TAGGTCACGTGGGTAA,-0.04 kcal/mol
22,TTGAGCACGTGTGCTT,0.11 kcal/mol
23,TTTTACACGTGGGGGT,0.02 kcal/mol
24,ATATTCACGTGAATGG,0.14 kcal/mol
25,AGAAGCACGTGGAGGT,0.06 kcal/mol
26,TTATGCACGTGATAGG,0.13 kcal/mol

row,Sequence,relative binding free energy
1,GGTCGCACGTGTTTGT,-0.02 kcal/mol
2,GGTATCACGTGCTCGG,0.13 kcal/mol
3,GGGGGCACGTGGCCAG,-0.25 kcal/mol
4,TTCTACACGTGATGGG,0.1 kcal/mol
5,TTTTGCACGTGGGGAT,-0.02 kcal/mol
6,TTAAACACGTGAGGGG,0.18 kcal/mol
7,CGAGCCACGTGGTGTG,-0.22 kcal/mol
8,GAGGACACGTGATCGG,0.23 kcal/mol
9,GATCGCACGTGCGGTT,0 kcal/mol
10,TCGATCACGTGTTATG,0.13 kcal/mol
11,GTAGTCACGTGGTCGA,0.04 kcal/mol
12,GATTTCACGTGTGCAT,0.41 kcal/mol
13,GGCGCCACGTGTTGGG,0.03 kcal/mol
14,AGGGGCACGTGTCGTT,-0.1 kcal/mol
15,ATTTACACGTGGTTTT,-0.01 kcal/mol
16,TAGGTCACGTGAGTAG,0.32 kcal/mol
17,CTGTTCACGTGGCTGG,0.1 kcal/mol
18,TGGTGCACGTGTGAAA,0.13 kcal/mol
19,TTACTCACGTGATTGG,0.21 kcal/mol
20,TTTATCACGTGTTTGG,0.19 kcal/mol
21,ACGAGCACGTGTAGGT,-0.24 kcal/mol
22,GTAGCCACGTGCGGGG,-0.12 kcal/mol
23,GGGCTCACGTGTAGCG,0.19 kcal/mol
24,AAATACACGTGAGTTG,0.2 kcal/mol
25,GTTGGCACGTGGATCA,-0.03 kcal/mol
26,CGTCGCACGTGTGGTG,-0.06 kcal/mol

row,Sequence,relative binding free energy
1,GGGTGCACGTGGATCT,0.14 kcal/mol
2,GGGTGCACGTGGAAGA,0.09 kcal/mol
3,TCGGGCACGTGAAATT,0.26 kcal/mol
4,TAAATCACGTGAGAGT,0.33 kcal/mol
5,GGATTCACGTGTTGGC,0.26 kcal/mol
6,GTGTTCACGTGTTGAT,0.22 kcal/mol
7,GGGTTCACGTGGCGTG,0.21 kcal/mol
8,TAGGGCACGTGTGCTT,-0.13 kcal/mol
9,TATTTCACGTGCGGAG,0.23 kcal/mol
10,AGTAACACGTGGGTGG,-0.05 kcal/mol
11,CTGTTCACGTGGACGG,0.45 kcal/mol
12,ATGAGCACGTGGGCAT,-0.33 kcal/mol
13,TAATTCACGTGTAAGA,0.28 kcal/mol
14,GGTCACACGTGGATTG,0.06 kcal/mol
15,TTATGCACGTGATAGC,0.12 kcal/mol
16,TTAACCACGTGAGTTT,0.33 kcal/mol
17,TTGGTCACGTGTAACT,0.2 kcal/mol
18,AGCTGCACGTGGTGTC,-0.16 kcal/mol
19,ATCTTCACGTGGTGTA,0.12 kcal/mol
20,CTTGGCACGTGGTAGA,-0.11 kcal/mol
21,ATGAACACGTGTTAGG,0.18 kcal/mol
22,AGTAACACGTGGGTTT,0.01 kcal/mol
